The values below come from ChEMBL document CHEMBL3259627, “Allosteric inhibition of human factor XIa: discovery of monosulfated benzofurans as a class of promising inhibitors” (J Med Chem, 2014).

Data set [1] relates to CCOC(=O)c1c(C)oc2cc(OC)c(OCc3oc4cc(OC)c(OCc5oc6cc(OCC)c(OS(=O)(=O)O)cc6c5C(=O)OCC)cc4c3C(=O)OCC)cc12. As to conditions: Homo sapiens; 300 nM.
Data set [2] has the same test system. As to conditions: Homo sapiens; 150 nM.
The subject of data set [3] is CCOC(=O)c1c(C)oc2cc(OC)c(OCc3oc4cc(OCC)c(OS(=O)(=O)O)cc4c3C(=O)OCC)cc12. As to conditions: Homo sapiens; 7.25 uM.
In data set [4] the test system is CCOC(=O)c1c(C)oc2cc(OC)c(OCc3oc4cc(OC)c(OCc5oc6cc(OCC)c(OS(=O)(=O)O)cc6c5C(=O)OCC)cc4c3C(=O)OCC)cc12. To be noted: Homo sapiens; 550 nM.
For data set [5] the test system is unchanged. To be noted: Homo sapiens; 900 nM.
The test system of data set [6] is CCOC(=O)c1c(C)oc2cc(OC)c(OCc3oc4cc(OCC)c(OS(=O)(=O)O)cc4c3C(=O)OCC)cc12. To be noted: Homo sapiens; 10 uM.
Data set [7] has the same test system. As to conditions: Homo sapiens; 5 uM.

Regarding “Coagulation factor XI (Homo sapiens) (sequence not shown)”, the Km is 350 µM in data set [1]; 380 µM in data set [2]; 250 µM in data set [3]; 290 µM in data set [4]; 280 µM in data set [5]; 310 µM in data set [6]. Further, the Km in data set [7] was found to be 230 µM. Further, the Vmax was found to be 48.7 mAU/min in data set [1]; 57.1 mAU/min in data set [2]; 30.7 mAU/min in data set [3]; 34.9 mAU/min in data set [4]; 9.8 mAU/min in data set [5]; 20.3 mAU/min in data set [6]. In addition, the Vmax in data set [7] was found to be 37.4 mAU/min.

The term Km denotes the substrate concentration at which the rate is half of its maximum.
